Molecules are shown by their SMILES. Over roughly 110,000 compounds, “z-score” has its median near -0.1; the highest 2% begin near 2. The list shows a part of the results.

The target of this assay is Metabotropic glutamate receptor 8 (Rattus norvegicus) (UniProt P70579). Briefly: rat mGluR8 modulators via GIRK flux, primary screen, cell-based, thallium flux, HTS (AID 488969). Particulars: HEK293 rat mGluR8, GIRK (G protein-gated inwardly rectifying potassium channel) thallium flux, FluoZin2; at 10 µM; stronger effect = higher value; submaximal glutamate (EC20) added with thallium.
UniProt P70579, sequence (P70579 whole entry, looked up): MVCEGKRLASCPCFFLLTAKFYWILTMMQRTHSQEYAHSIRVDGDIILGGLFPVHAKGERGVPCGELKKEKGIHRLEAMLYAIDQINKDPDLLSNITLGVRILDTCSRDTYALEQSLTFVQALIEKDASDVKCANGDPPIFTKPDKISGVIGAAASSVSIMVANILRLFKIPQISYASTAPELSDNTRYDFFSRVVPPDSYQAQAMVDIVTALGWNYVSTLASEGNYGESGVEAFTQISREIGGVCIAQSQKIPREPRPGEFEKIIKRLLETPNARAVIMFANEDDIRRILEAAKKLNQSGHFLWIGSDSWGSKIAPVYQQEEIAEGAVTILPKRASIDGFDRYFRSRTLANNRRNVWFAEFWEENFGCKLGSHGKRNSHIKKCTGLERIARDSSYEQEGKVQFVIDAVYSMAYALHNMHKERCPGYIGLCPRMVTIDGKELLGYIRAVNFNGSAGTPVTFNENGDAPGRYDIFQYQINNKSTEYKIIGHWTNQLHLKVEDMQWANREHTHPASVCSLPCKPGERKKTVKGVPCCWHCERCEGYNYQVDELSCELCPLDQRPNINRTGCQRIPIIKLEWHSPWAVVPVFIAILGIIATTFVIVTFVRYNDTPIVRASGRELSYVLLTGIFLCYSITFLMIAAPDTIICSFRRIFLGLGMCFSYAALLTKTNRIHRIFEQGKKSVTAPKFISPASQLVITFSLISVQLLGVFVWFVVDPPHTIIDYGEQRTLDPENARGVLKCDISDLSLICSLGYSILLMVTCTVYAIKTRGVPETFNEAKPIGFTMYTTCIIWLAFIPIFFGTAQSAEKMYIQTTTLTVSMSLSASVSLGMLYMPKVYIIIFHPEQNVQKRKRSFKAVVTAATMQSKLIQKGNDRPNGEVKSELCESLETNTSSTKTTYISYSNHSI
Regarding `CCOC(=O)c1c(NC(C)=O)sc2c1CCCNC2=O`, the z-score is -1.01.

As for `CSc1nc(-c2ccccc2)nn1S(=O)(=O)c1ccccc1`, the z-score is -0.16.

In turn, `O=C(COc1ccccc1Cl)NC(=S)Nc1cccc(NC(=O)c2ccccc2Cl)c1` came in with a z-score of 0.0174.

As for `COc1ccc(-c2nc3ccncc3[nH]2)cc1OC`, the z-score was -0.103.

Turning to `Cc1ccccc1C(=O)Nc1c2c(nc3ccccc13)CCCC2`, the z-score is -0.429.

`Cc1ccc(-n2c(SCC(=O)Nc3cccc(S(N)(=O)=O)c3)nc3ccccc32)cc1` yielded a z-score of 0.106.

With `FC(F)(F)c1nc2ccccc2nc1N/N=C/c1ccc(Cl)cc1`, the z-score was -0.227.

Turning to `CCN1CCN(Cc2cc(=O)oc3ccc(Cl)cc23)CC1`, the z-score was -0.503.

For `CCOC(=O)C(C)Oc1cccc2c(=O)n(CC(=O)N3CCc4ccccc43)ccc12` (stereo not given), the z-score is -0.345.

With `CCS(=O)(=O)N1CCN(CC2CC3C=CC2C3)CC1` (stereo not given), the z-score was -0.0203.

Turning to `COC(=O)c1ccc(NC(=S)NCCc2ccccc2)cc1`, the z-score was 0.0302.

As for `Cc1ccnc(NS(=O)(=O)c2ccc(NC(=O)Cc3cccs3)cc2)n1`, the z-score was found to be 0.142.

For `COc1ccc(-c2oc3ccccc3c(=O)c2OC(=O)c2ccc(C)cc2)cc1`, the z-score was found to be 0.707.

Consider `O=C(COc1ccc(Cl)cc1Cl)Nc1c(-c2cccs2)nc2ccccn12`, for which the z-score was -0.0767.

As to `Cc1onc(-c2ccccc2)c1C(=O)Nc1ccc2c(c1)OCO2`, the z-score is -0.564.

In turn, `O=C(Nc1ccccc1)N(CCN1CCOCC1)Cc1ccccc1F` returned a z-score of 0.227.

`CCOc1cc(C(=O)OC(C)C(=O)Nc2ncc(Cl)cc2Cl)ccc1OCC(=O)N1CCOCC1` (stereo not given) came in with a z-score of 0.507.

With `O=C(NC(=S)NCC1CCCO1)c1cccs1` (stereo not given), the z-score is 0.35.

For the molecule `COC(=O)C1CCN(c2cc(=O)n(Cc3ccc(F)cc3)c(=O)[nH]2)CC1`, the z-score was -0.228.

On to `CNC(=S)Nc1cccc2[nH]ncc12`, for which the z-score came out at 0.303.

As to `CC1(C)Oc2ccc3ccc(=O)oc3c2C(N2CCCCC2)C1O` (stereo not given), the z-score stood at 0.898.

In the case of `Cc1cccc(NC(=O)CSc2nc3nc4c(cc3c(=O)n2-c2ccccc2)CCCC4)c1`, the z-score was -0.318.

On to `CC(C)C(NC(=O)CSCc1ccc([N+](=O)[O-])cc1)C(C)C`, for which the z-score was -0.524.

With `Fc1ccc(Oc2cc(N3CCOCC3)nc(-c3ccccc3)n2)c(F)c1`, the z-score is -0.112.

For `COc1ccc2c(c1OC)C(=O)N1c3ccccc3C(=O)N(c3ccc(F)cc3)C21` (stereo not given), the z-score was -0.452.

As to `CCC(C)OC(=O)c1cc(C)nc2c(Br)cc(Br)cc12` (stereo not given), the z-score is 0.0924.

As for `Cc1c(C(Nc2ccccn2)c2ccc(Cl)cc2)c(=O)n(-c2ccccc2)n1C` (stereo not given), the z-score is -1.31.

`O=C1NC2=C(C(=O)c3ccccc32)C(c2ccccc2)N1` (stereo not given): the z-score was -0.485.

In the case of `O=C(NCc1cccnc1)/C(=C/c1ccc(-c2ccc(Cl)cc2)o1)S(=O)(=O)c1ccccc1`, the z-score is -0.0548.

Turning to `N#Cc1ccc(-c2ccccc2)nc1SCC(=O)c1cccc(Cl)c1`, the z-score is -0.211.

Source of the values: PubChem BioAssay AID488969 (Vanderbilt High Throughput Screening Facility, 2010).
